# Measurements as given in PubChem BioAssay AID504466 (National Center for Advancing Translational Sciences (NCATS), 2011).
# The whole screen tested about 330,000 compounds, of which about 4,200 (1.3%) were called active. This list was built around the results that the source calls inconclusive (neither active nor inactive); the mix of calls is not that of the screen. Calls come from the whole dose curve; as a rule, active = well fitted activation curve with a large enough effect; inconclusive = small, poorly fitted or top-dose-only effect; inactive = no such curve, though single readings can be large or run the other way. Potencies of inconclusive entries are doubtful fits and often do not repeat.
# Assay: qHTS screen for small molecules that induce genotoxicity in human embryonic kidney (HEK293T) cells expressing luciferase-tagged ELG1; note: nearly all actives have a fitted effect of over 60% in size; for activity change, positive = activation: % of control where 0% means no effect
# Details: HEK293T ELG1-luciferase reporter, luminescence, 16 h; series mostly up to 46 µM; activity change, positive = activation: at the top concentration
# Procedure, shortened: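 Quantitative HTS format in 1536-well plates. HEK293T ELG1-luciferase reporter cells receive test compound and are incubated 16 hr at 37 °C, 5% CO2; ONE-Glo added, 30 min room temperature, then luminescence read.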
# Potency is the fitted concentration of half-maximal effect; tags give direction and shape of the fitted curve.
SMILES,Potency,"activity change, positive = activation"
CC(=O)NCCNC(=O)c1ccc(CSc2ccc(Cl)cc2)cc1,"inconclusive: 10.3 µM [activator, partial curve]",–
COc1cc(-c2nnc(SCc3ccccc3Cl)o2)cc(OC)c1OC,"inconclusive: 35.5 µM [activator, single point]",–
Cc1ccc2cc(C#N)c(SCc3nnc(-c4ccccc4[N+](=O)[O-])o3)nc2c1,"inconclusive: 20.6 µM [activator, single point]",–
COc1ccc(-c2nnc(SCc3ccccn3)n2C)cc1,"inconclusive: 18.4 µM [activator, partial curve, poor fit]",–
COc1ccc2nc(NC(=O)c3ccc4ncsc4c3)sc2c1,active: 5.8 µM,–
CCCCN(C)CCC(=O)Nc1ccc2c(c1)CCC2,–,inactive: -10.4%
COc1ccc(-c2cc3cc4c(cc3cn2)OCO4)cc1,active: 0.73 µM,–
O=C(Nc1cc2c(cc1Br)OCCO2)c1cccs1,active: 11.6 µM,–
COc1ccc(-c2nc(N3CCC(C)CC3)[nH]c(=O)c2C#N)cc1,–,inactive: 2.71%
O=C(Nc1ccccc1)c1nc[nH]c1C(=O)NCCCNC(=O)c1[nH]cnc1C(=O)Nc1ccccc1,–,inactive: -5.7%
Cc1ccc(CSc2nnc(-c3ccncc3)n2C)cc1,"inconclusive: 29.1 µM [activator, partial curve, poor fit]",–
S=c1[nH]nc(-c2ccco2)n1/N=C/C(Cl)=C/c1ccccc1,"inconclusive: 14.6 µM [activator, partial curve]",–
Cc1ccc(-c2nc3c4ccccc4ccn3c2CN2CCCCC2)cc1,–,inactive: 8.54%
COc1cccc(-c2ccc(-c3noc(-c4ccccc4F)n3)c(OC)n2)c1,"inconclusive: 23.1 µM [activator, single point]",–
O=C(Nc1cccc([N+](=O)[O-])c1)c1ccc2c(c1)OCCO2,"inconclusive: 10.3 µM [activator, partial curve, poor fit]",–
O=C(N/N=C/c1cccnc1)c1cc(-c2ccccc2Cl)nc2ccccc12,–,inactive: -3.61%
CO/C([O-])=N/c1c[n+](-c2ccc(C)cc2)no1,"inconclusive: 20.6 µM [activator, partial curve]",–
COc1ccc(NC(=O)n2nc(OC(=O)c3cccs3)cc2N)cc1,"inconclusive: 20.6 µM [activator, partial curve, poor fit]",–
COc1cc(C(C)=O)ccc1Oc1ncnc2c1cnn2-c1ccc(F)cc1,–,inactive: 18.1%
COc1ccc(-c2csc(-n3cccn3)n2)cc1,"inconclusive: 4.11 µM [activator, partial curve]",–
CCOc1ccc(OCCC(=O)OCC(=O)N2CCN(S(=O)(=O)c3ccc(Cl)cc3)CC2)cc1,"inconclusive: 20.6 µM [activator, partial curve, poor fit]",–
CNC(=O)COC(=O)c1ccccc1C(=O)c1ccc(Cl)c([N+](=O)[O-])c1,"inconclusive: 5.8 µM [activator, partial curve, poor fit]",–
CC(C)(C)N1CC(COc2ccccc2)OC1=O (configuration not stated),"inconclusive: 20.6 µM [activator, partial curve, poor fit]",–
COc1ccc(-c2ccc(SCC(=O)c3cccs3)nn2)cc1,"inconclusive: 20.6 µM [activator, partial curve, poor fit]",–

SMILES,Potency,"activity change, positive = activation"
O=C(NCCc1ccc(F)cc1)c1cccs1,"inconclusive: 20.6 µM [activator, partial curve, poor fit]",–
COc1cc(/C=N/NC(=O)CSCc2ccc([N+](=O)[O-])cc2)cc(OC)c1OC,–,inactive: -4.85%
O=C(Cc1ccc(F)cc1)c1ccc(O)cc1O,"inconclusive: 16.4 µM [activator, single point]",–
COc1cccc(C=Nc2cccc3c(=O)[nH][nH]c(=O)c23)c1O,"inconclusive: 25.9 µM [activator, single point]",–
CC1CCC(C(C)C)C(=O)/C1=C/c1ccc(N)cc1 (configuration not stated),"inconclusive: 10.3 µM [activator, partial curve]",–
CCOC(=O)Cc1csc(NC(=O)c2csc(C)c2)n1,"inconclusive: 29.1 µM [activator, single point]",–
COc1cccc(C(=O)N[C@@H](CCSC)c2nc3ccccc3[nH]2)c1,"inconclusive: 6.51 µM [activator, single point]",–
Cc1ccc(S(=O)(=O)NCCC(=O)NNC(=O)c2ccccc2Cl)cc1C,–,inactive: -2.44%
COc1ccc(Br)cc1CN(C)C(=O)C1CC(=O)N(C2CCCC2)C1 (configuration not stated),–,inactive: -1.91%
Cc1ccc(/C=C/C(=O)c2ccccc(=O)c2O)cc1C,"inconclusive: 32.6 µM [activator, partial curve, poor fit]",–
COC(=O)c1ccc(CSc2nc(N)cc(N)n2)cc1,active: 14.6 µM,–
CC/C(=N/Nc1ccccc1)c1cnnc(-c2ccccc2)n1,"inconclusive: 11.6 µM [activator, partial curve, poor fit]",–
O=C(O)c1cccc(N2C(=O)c3cccc4cccc(c34)C2=O)c1,–,inactive: -1.72%
Nc1c(Cl)c(Cl)nc(C(=O)OCC(=O)NC2CCCCC2)c1Cl,–,inactive: 2.98%
c1ccc(CN2CCN(c3nc4ccccc4s3)CC2)cc1,active: 9.2 µM,–
O=C(N/N=C/c1cn(-c2ccccc2)nc1-c1ccc2c(c1)OCCO2)c1ccncc1,"inconclusive: 8.2 µM [activator, partial curve]",–
COc1ccc(OCC2CCNCC2)cc1,"inconclusive: 14.6 µM [activator, partial curve, poor fit]",–
Cc1ccc2nc(-c3ccc(NC(=O)CN4C(=O)NC(C)(c5ccc(OC(F)F)cc5)C4=O)cc3)sc2c1 (configuration not stated),active: 20.6 µM,–
Cc1ccc(CNc2ccc(N3CCOCC3)cc2)cc1,"inconclusive: 5.17 µM [activator, full curve, poor fit]",–
COc1ccc(NC(=O)c2noc3c2CCCCC3)cc1,"inconclusive: 0.92 µM [activator, full curve]",–
COc1cccc2sc(Nc3nnc(-c4ccc(F)cc4)o3)nc12,"inconclusive: 29.1 µM [activator, single point]",–
COc1cccc(-c2cc(=O)c3cc(NC(=O)c4ccccc4)ccc3[nH]2)c1,"inconclusive: 32.6 µM [activator, partial curve, poor fit]",–
O=C(Nc1ccc(Cl)cc1)C1CC(=O)n2c(nc3ccccc32)N1 (configuration not stated),"inconclusive: 35.5 µM [activator, partial curve, poor fit]",–
COc1cccc(N(C(=O)Cn2nnc(-c3cccs3)n2)C(C(=O)NC2CCCCC2)c2ccncc2)c1 (configuration not stated),"inconclusive: 18.4 µM [activator, single point]",–

SMILES,Potency,"activity change, positive = activation"
Cc1ccc(-c2nnc(NC(=O)c3ccco3)s2)cc1,active: 4.61 µM,–
N#C/C(=N\Nc1ccccc1)C(N)=S,–,inactive: -14%
c1ccc(-n2ncc3c(N4CCC5(CC4)OCCO5)ncnc32)cc1,active: 4.11 µM,–
CCOc1ccc(C2C=C(c3ccccc3)Nc3nnnn32)cc1 (configuration not stated),"inconclusive: 9.2 µM [activator, partial curve]",–
O=C(COc1ccc(Cl)cc1)N1CCCCC1,"inconclusive: 5.8 µM [activator, single point]",–
CC(=O)N1CCN(CCS(=O)(=O)c2cc(Cl)ccc2Cl)CC1,"inconclusive: 8.2 µM [activator, partial curve, poor fit]",–
O=C(Nc1ccc2oc(-c3ccc4ccccc4c3)nc2c1)c1cccs1,active: 2.91 µM,–
COC(=O)c1ccc2nc(NC(=O)C3CC3)sc2c1,"inconclusive: 18.3 µM [activator, partial curve]",–
CC(C)(CO)NS(=O)(=O)c1ccc2c(c1)Cc1cc(S(=O)(=O)NC(C)(C)CO)ccc1-2,–,inactive: -2.04%
Fc1ccc(NC(=S)N2N=CCC2c2ccccc2)cc1 (configuration not stated),active: 23.1 µM,–
O=C(Nc1ccc(Oc2ccc(NC(=O)Nc3ccccc3Cl)cc2)cc1)Nc1ccccc1Cl,–,inactive: 1.92%
COc1ccc(OCc2cc(C(=O)N3CCSCC3)no2)c(Cl)c1,"inconclusive: 8.2 µM [activator, partial curve, poor fit]",–
Nn1c(Nc2ccccc2)nc2ccccc21,"inconclusive: 18.4 µM [activator, partial curve]",–
Cc1cc(/C=N/NC(=O)c2ccncc2)c(C)n1-c1ccccc1,"inconclusive: 23.1 µM [activator, single point]",–
CCOC(=O)C1CCN(C(=O)c2ccc3c(c2)NC(=O)/C(=C\c2ccc(C)cc2)S3)CC1,–,inactive: -0.132%
C[C@@H](CN1CCC(Cc2ccccc2)CC1)[C@@H](O)c1ccc(O)cc1,"inconclusive: 29.1 µM [activator, single point]",–
CCc1ccc(Cn2nnc(C(=O)Nc3cccc(C)c3)c2N)cc1,–,inactive: 9.44%
O=[N+]([O-])c1ccc2cn(-c3ccccc3)nc2c1,"inconclusive: 9.2 µM [activator, partial curve]",–
O=C(CSc1ncnc2ccccc12)c1cccs1,"inconclusive: 3.66 µM [activator, full curve]",–
CCN(c1cccc(C)c1)S(=O)(=O)c1ccc2[nH]c(=O)c(=O)[nH]c2c1,–,inactive: -0.906%
C=CCn1c(SCC(=O)N2CCOCC2)nc2ccccc2c1=O,–,inactive: -1.96%
Cc1cnc(NC(=O)Nc2ccc(Cl)cc2)s1,"inconclusive: 5.8 µM [activator, partial curve]",–
COc1cccc(CNC(=O)c2ccc(NC(=O)C3=CSCCO3)cc2)c1,"inconclusive: 16.4 µM [activator, partial curve, poor fit]",–
C=CCSc1nnc(-c2cccnc2)o1,"inconclusive: 25.9 µM [activator, single point]",–
